Source: patent publication US12553059B2, “Plant serine proteases” (priority 2018, dated 2026)

Tests used:
SBT2 (SEQ ID No. 14) = test: Kinetic analysis of protease-inhibitor interactions, SBT2; format: biochemical, Nicotiana benthamiana; settings: recombinant inhibitor from E. coli; substrate Abz-VILDAVRA-Y(NO2)
Experimental: (§1) These assays were performed as described (Hohl M et al., 2017, J. Biol. Chem. 292, 6389-6401). A fluorogenic peptide substrate, Abz-[…]-Y(NO2) (SEQ ID NO: 37), was used for measuring the enzymatic activity of the subtilisin-like serine proteases tested. Recombinant inhibitors (prepared as described in Hohl M et al., 2017, J. Biol. Chem. 292, 6389-6401) were added in serial dilutions. Substrate cleavage was monitored in an Infinite M200 Pro microplate reader as increase in relative fluorescence (λex=320 nm; λem=420 nm). Inhibition constants (Ki) were calculated using the Morrison equation.

SBT1 (SEQ ID No. 2) = test: Kinetic analysis of protease-inhibitor interactions, SBT1; format: biochemical, Nicotiana benthamiana; settings: recombinant inhibitor from E. coli; substrate Abz-VILDAVRA-Y(NO2)
Experimental: as §1

B1: S12: S. lycopersicum subtilisin propeptide-like inhibitor, SEQ ID No. 34, recombinant from E. coli (protein)
chain: MQKIQIIFLVFLLLFVADCEEAKVYIVFTENPQPKEFHIKTLASVLGSEDAAREALIYSYKHVISGFAARLTPEQVSELAKKPGVLEIVPSRTYHLDGPKLK
modifications: Protease inhibitor
SBT2 (SEQ ID No. 14)
  binding affinity to / inhibition of SBT2: high affinities
SBT1 (SEQ ID No. 2)
  binding affinity to / inhibition of SBT1: high affinities
